Source: article PMC12136788
This is one part of the list.

B1: chr11:108172639:108172748:-|CDS|ENSG00000149308|unk|total|mutant (ssRNA)
RNA: GGGAGUUCUACAGUCCGACGAUCGUUAUCAUCCGUGAUGAUCCAUUUGUUUCCUCAGAUACUGAACUUACCAGUGCUGUUUCCCGUAUUAAUGGAGAAAACCUGCCAACUAUAAUCUUGUCUUCUCCUACUAAAUCACCUACUCAACAGAGGAUUGAGCAUCA
B2: chr8:142872356:142874372:-|three_prime_utr|ENSG00000160882|control|control|control (ssRNA)
RNA: GGGAGUUCUACAGUCCGACGAUCUUCCUGAGUCACCCCUCUGUCUAACCAGCCCCAGCACAAAUGGAACUCCCGAGGGCCUCUAGGACCAGGGUUUGCCAGGCUAAGCAGCAAUGCCAGGGCACAGCUGGGGAAGAUCUUGCUCAACAGAGGAUUGAGCAUCA
B3: chr11:95167508:95167609:-|3pUTR|ENSG00000149212|unk|FALSE|unique (ssRNA)
RNA: GGGAGUUCUACAGUCCGACGAUCAAUAAUGGAGACUGAAUGAGGCGGUUUGUAUUAAAUUAUAUGCCAUGAAGUGUUCAUUUUAGCUUUAACCUAAUUAUGACUGUACCACCAUGAAGUACAGAAUGAAAAAUUAUAUAUAUGCAACAGAGGAUUGAGCAUCA
B4: chr3:160434497:160434598:+|3pUTR|ENSG00000113810|msi1|FALSE|bound_elsewhere (ssRNA)
RNA: GGGAGUUCUACAGUCCGACGAUCUUUAUGAUAGGUUUAUCCGGGUACUAAAUGCAUUUCAACUUGAUAGUUUCAACUUAUGAUAGGUUUACCAGGAUGUAGUCCCACUGUUGAGGAGCAUCUAUUUAGGGGUUAAUUACUUUACAACAGAGGAUUGAGCAUCA
B5: chr1:204551843:204551944:+|3pUTR|ENSG00000198625|unk|FALSE|unique (ssRNA)
RNA: GGGAGUUCUACAGUCCGACGAUCAGUGUUCCUGGAAUCUCUAUGCAAGUUUUAUACAGAACAUACUUUUGGAAUCCUUGCCCUAGACAGGGGUGUCCAAUCUUUUGGCUUCCCUGGUCCACAAUGGAAGAAGAAUUGUCUUGGCAACAGAGGAUUGAGCAUCA
B6: chr9:74999729:74999870:-|CDS|ENSG00000156017|control|control|control (ssRNA)
RNA: GGGAGUUCUACAGUCCGACGAUCAGUAAAUAUUCUGGUACCUGGUGCUGGACUAGGAAGACUGGCCUGGGAAAUAGCUAUGCUAGGUUAUGCUUGUCAAGGAAAUGAAUGGAGUUUUUUUAUGCUCUUUUCUUCCAACUUUGUCAACAGAGGAUUGAGCAUCA
B7: chr3:44647099:44647200:+|3pUTR|ENSG00000186448|msi1|total|mutant (ssRNA)
RNA: GGGAGUUCUACAGUCCGACGAUCAUUUGUAUGUAAACUACAUAAAGAACUUUCCAAAUUUAACAGUAAUAAGUAAAUACAAUCCGAAAAUAAGCAAAAGACAGACAUUUCACUGAAGUACCGACCGCAAAUAAGCAAAUGAAACAACAGAGGAUUGAGCAUCA
B8: chr10:110898111:110898227:+|3pUTR|ENSG00000150593|unk|FALSE|bound_elsewhere (ssRNA)
RNA: GGGAGUUCUACAGUCCGACGAUCAUAAGAACUCUUGCAGUCUUAGAUGUUAUAAAAAUAUAUAUCUGAAUUGUAAGAGUUGUUAGCACAAGUUUUUUUUUUUUUUUUUUUUAAGCACUUGUUUUGGGUACAAGGCAUUUCUGACAACAGAGGAUUGAGCAUCA
B9: chr7:76328962:76329048:-|3pUTR|ENSG00000170027|msi1_unk|total|mutant (ssRNA)
RNA: GGGAGUUCUACAGUCCGACGAUCACCUGAGGUCUCAUUCAUCCUUAUGGUUCCGGCCUUGCCAGUUUUCCGAAGUCUCUGAUCCGUUGACAGUAUUAACACUAAAUUGCAGUUUACAGUAUUUCUACAUUACAGCCAUAUGUACAACAGAGGAUUGAGCAUCA
B10: chr10:110133424:110133536:+|CDS|ENSG00000148700|unk|FALSE|bound_elsewhere (ssRNA)
RNA: GGGAGUUCUACAGUCCGACGAUCGCAUGAUGUUGAAGAUGAGCUUGCUAAGCGAGUGAGUAGGUUAAGCACAAGUACAACCAUAGAAAACAUCGAGAUUACUAUUAAGUCUCCAGAGAAAAUCGAAGAAGUCCUGUCACCUGACAACAGAGGAUUGAGCAUCA
B11: chr5:113019263:113019364:+|3pUTR|ENSG00000172795|msi1|FALSE|unique (ssRNA)
RNA: GGGAGUUCUACAGUCCGACGAUCCUCAACUGUGAAUGAAAUUUAGAAAGAUAAUUCUUCAGCAGUUGGUUGAUUAGAUGGGUUAGUGCUUUUGGAAUAUAUAACAGUAGACUUGUAUUCUUUAUGCACUAUACAUAUGAUACGCAACAGAGGAUUGAGCAUCA
B12: chr3:58425360:58425463:+|3pUTR|ENSG00000168297|unk|total|mutant (ssRNA)
RNA: GGGAGUUCUACAGUCCGACGAUCAGACAGCUCCCCGAAACAUUCCUCUUACAGUUCAUUUCUCUAAAGCAUUUUCUGAUUCUCCGAUAACUCCAAUUUUUGCUACCUUUAUCUCCGACAUUAACACUACCGCCCAAAGCACCGCAACAGAGGAUUGAGCAUCA
B13: chr10:100209595:100209696:-|CDS|ENSG00000213341|unk|total|mutant (ssRNA)
RNA: GGGAGUUCUACAGUCCGACGAUCACUUCUUUCAGAGACAGGAAUUUCUCUGGAUCCUCGGAAACCAGCCUCUCAAUGUGUUCCCGAUGGAGUUGUAAGAAAAUUAAUUAUAAUAUCCCCCGAGUAUGUGAAAUCCCGAGGGAUCAACAGAGGAUUGAGCAUCA
B14: chr7:122320167:122320338:-|CDS|ENSG00000081803|control|control|control (ssRNA)
RNA: GGGAGUUCUACAGUCCGACGAUCUGUGUUGGAAGGAACACUGAACAGUAAGACUUAUGAUACUGUGCACAGACGUUUAACAGUAGAGGAGGCCACAGCCUCUGUUUCAGAAGGAGGAGGACUUCAGGGCAUUACUAUGAAAGACAACAGAGGAUUGAGCAUCA

molecular target: MSI1 full-length (mouse, UniProt Q61474 1-362); test: nsRBNS (natural sequence RNA bind-n-seq); RBNS binding buffer (assumed for nsRBNS): 25 mM Tris pH 7.5, 150 mM KCl, 3 mM MgCl2, 0.01% Triton X-100, 500 ug/ml BSA, 20 U/ml SUPERase-In, 4 C; UNK is unkempt and MSI1 is Musashi-1; names of the RNAs are library labels; protein concentration not given here; high values mean tight binding
Chain of UniProt Q61474 (Q61474 whole entry): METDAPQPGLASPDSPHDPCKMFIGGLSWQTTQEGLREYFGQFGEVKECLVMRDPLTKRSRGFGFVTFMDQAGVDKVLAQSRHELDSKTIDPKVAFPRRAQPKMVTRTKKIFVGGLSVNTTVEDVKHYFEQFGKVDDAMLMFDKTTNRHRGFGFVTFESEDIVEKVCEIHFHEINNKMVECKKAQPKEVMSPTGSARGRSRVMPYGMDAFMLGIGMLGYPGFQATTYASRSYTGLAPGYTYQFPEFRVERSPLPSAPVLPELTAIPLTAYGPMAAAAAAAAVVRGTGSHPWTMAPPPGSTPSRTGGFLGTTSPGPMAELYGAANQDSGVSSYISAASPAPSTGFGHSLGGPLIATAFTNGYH

Binder	binding signal
B1	0.428 enrichment R
B2	0.585 enrichment R
B3	3.55 enrichment R
B4	3.41 enrichment R
B5	0.363 enrichment R
B6	0.468 enrichment R
B7	19.7 enrichment R
B8	1.69 enrichment R
B9	1 enrichment R
B10	1.04 enrichment R
B11	1.92 enrichment R
B12	1.78 enrichment R
B13	0.439 enrichment R
B14	0.605 enrichment R
